Assay results published in PubChem BioAssay AID902 (National Center for Advancing Translational Sciences (NCATS), 2007).
Out of some 130,000 compounds screened, about 1,900 (1.5%) were called active. The shares of active, inactive and inconclusive entries below differ from those in the screen. Calls follow the shape of the dose curve; as a rule, active = well fitted cell-killing curve with a large enough effect; inconclusive = small, poorly fitted or top-dose-only effect; inactive = no such curve, though single readings can be large or run the other way. Where the call is inconclusive, the potency comes from a doubtful curve fit.

experiment: qHTS Screen for Compounds that Selectively Target Cancer Cells with p53 Mutations: Cytotoxicity of p53ts Cells at the Nonpermissive Temperature; conditions: H1299-p53A138V viability at 39C, ATP luminescence, 24 h; activity change, negative = cell killing: at 46.1 µM (top of the series); also: nearly all actives have a fitted effect of over 55% in size
% is scaled to controls: 0 for no effect and ±100 for the full control effect; potency is read from the fitted curve at half-maximal effect; tags tell the direction and shape of the fitted curve.

**Q.** For `Cc1nnc(NC(=O)c2cccn(Cc3ccccc3F)c2=O)s1`, which Potency is on record?
**A.** inconclusive: 0.0794 µM [cytotoxic, full curve, poor fit]

**Q.** Which Potency does the source give for `NC[C@H](O)c1cc(O)c(O)cc1F` here?
**A.** inactive

**Q.** With `C=C1[C@@H](O)C2C=CC[C@H](C)C(=O)[C@@](C)(O)C=C[C@@H](OC(C)=O)[C@@]23C(=O)N[C@H](Cc2ccccc2)[C@@H]3[C@@H]1C` (stereo partly specified) as the molecule, how does the Potency read?
**A.** inconclusive: 0.0794 µM [cytotoxic, full curve]

**Q.** For `COc1cc(-c2ccc(=O)[nH]n2)ccc1OC(F)F`, which Potency is on record?
**A.** inconclusive: 10 µM [cytotoxic, partial curve]

**Q.** For `O=C(Nc1nc2c(s1)CCCCCC2)Nc1ccc(F)cc1F`, which Potency is on record?
**A.** inconclusive: 20 µM [cytotoxic, partial curve]

**Q.** For `O=C(CSc1ccccc1)N1CCC2(CC1)OCCO2`, which Potency is on record?
**A.** inactive

**Q.** For `Cc1cc2c(C(C)C)c(O)c(O)c(C=O)c2c(O)c1-c1c(C)cc2c(C(C)C)c(O)c(O)c(C=O)c2c1O`, which Potency is on record?
**A.** active: 20 µM

**Q.** For `CC(=O)[O][Hg][c]1ccccc1`, which Potency is on record?
**A.** active: 1.58 µM

**Q.** Which Potency does the source give for `O=c1[nH]c2ccccc2n1C1CCN(CCCC(c2ccc(F)cc2)c2ccc(F)cc2)CC1` here?
**A.** active: 15.8 µM

**Q.** For `Cc1ccc(Cl)cc1NC(=O)NCc1cccn1Cc1ccc(F)cc1`, which Potency is on record?
**A.** active: 10 µM

**Q.** Which Potency does the source give for `CN(C(=O)c1ccco1)C1(c2ccccc2Cl)CCCCC1=O` (stereo unspecified) here?
**A.** inactive

**Q.** Which Potency does the source give for `COc1ccc(NC(=O)c2ccco2)cc1NC(=O)COc1cc(C)cc(C)c1` here?
**A.** inconclusive: 12.6 µM [cytotoxic, single point]

**Q.** For `Cc1nnc(NC(=O)c2cccn(Cc3ccc(Cl)cc3)c2=O)s1`, which Potency is on record?
**A.** inconclusive: 31.6 µM [cytotoxic, partial curve]

**Q.** Which Potency does the source give for `CCCCOc1ccc(CN2C(=O)C(=O)c3cc(C)ccc32)cc1OC` here?
**A.** active: 10 µM

**Q.** For `CC(C)Oc1ccc(CNC(=O)C2CCCN(S(=O)(=O)c3ccc4c(ccn4C)c3)C2)cc1` (stereo unspecified), which Potency is on record?
**A.** inconclusive: 0.501 µM [cytotoxic, full curve, poor fit]

**Q.** With `O=C(CCC1CCCC1)c1c(O)c2ccccc2oc1=O` as the molecule, how does the Potency read?
**A.** inconclusive: 20 µM [cytotoxic, partial curve]

**Q.** With `O=C(O)[C@H]1[O][Sb][O][C@@H](C(=O)O)C1O` (stereo partly specified) as the molecule, how does the activity change, negative = cell killing read?
**A.** inactive: 12.5% [at 9.22 µM]

**Q.** With `CC(C1OC(C)(C)C(O)C1O)C1CC[C@@]2(C)C3=CCC4C(C)(C)C(=O)CC[C@]4(C)C3CC[C@@]12C` (stereo partly specified) as the molecule, how does the Potency read?
**A.** inconclusive: 10 µM [cytotoxic, partial curve]

**Q.** For `COc1c(CC=C(C)C)c2c(c3oc(=O)c(-c4ccc(O)cc4)c(O)c13)C=CC(C)(C)O2`, which Potency is on record?
**A.** inactive

**Q.** Which Potency does the source give for `c1csc(CN2CC3(CCNCC3)C2)n1` here?
**A.** inactive

**Q.** With `CCCSc1ccc2nc(NC(=O)OC)[nH]c2c1` as the molecule, how does the Potency read?
**A.** inconclusive: 12.6 µM [cytotoxic, single point]

**Q.** For `NC(=NCc1ccc(Cl)cc1)SCCCc1cnc[nH]1`, which Potency is on record?
**A.** inconclusive: 20 µM [cytotoxic, partial curve]

**Q.** For `Cc1cc(NC(=O)c2cc(-c3cccc(Cl)c3)on2)nn1Cc1ccc(Cl)cc1`, which Potency is on record?
**A.** inconclusive: 20 µM [cytotoxic, partial curve]

**Q.** With `Cc1ccc(CN2C(=O)c3ccccc3Sc3ccc(C(=O)N4CCC5(CC4)OCCO5)cc32)cc1` as the molecule, how does the Potency read?
**A.** inconclusive: 0.0079 µM [cytotoxic, full curve, poor fit]

**Q.** Which Potency does the source give for `C=CCN1CCc2cccc3c2[C@@H]1Cc1ccc(O)c(O)c1-3` here?
**A.** inconclusive: 20 µM [cytotoxic, single point]

**Q.** Which Potency does the source give for `COc1ccccc1NC(=O)c1oc2ccccc2c1NC(=O)COc1cccc(C)c1` here?
**A.** inconclusive: 3.16 µM [cytotoxic, full curve, poor fit]

**Q.** Which Potency does the source give for `Cc1ccc(-n2nc3ccc(NC(=O)COc4ccccc4C)cc3n2)cc1` here?
**A.** inactive

**Q.** With `COc1ccc(-n2c(/C=C\c3ccccc3F)nc3ccccc3c2=O)cc1OC` as the molecule, how does the activity change, negative = cell killing read?
**A.** inconclusive: -33.1% [cytotoxic]

**Q.** Which Potency does the source give for `Cc1c(C(=O)N2CCOCC2)sc2nc(-c3ccccc3)cn12` here?
**A.** inconclusive: 12.6 µM [cytotoxic, partial curve]

**Q.** With `COc1cccc(-n2c(/C=C/c3ccccc3O)nc3ccccc3c2=O)c1` as the molecule, how does the Potency read?
**A.** inconclusive: 31.6 µM [cytotoxic, single point]

**Q.** For `CN(C)CCC=C1c2ccccc2CCc2ccccc21`, which Potency is on record?
**A.** inconclusive: 15.8 µM [cytotoxic, partial curve]

**Q.** For `CC(C)OCCCNC(=O)c1c(N)n(Cc2cccs2)c2nc3ccccc3nc12`, which Potency is on record?
**A.** inconclusive: 25.1 µM [cytotoxic, single point]

**Q.** For `Clc1ccc(C(c2ccc(Cl)cc2)C(Cl)(Cl)Cl)cc1`, which Potency is on record?
**A.** inconclusive: 31.6 µM [cytotoxic, single point]

**Q.** For `O=C(c1cc2ccccc2oc1=O)N1CCC2(CC1)OCCO2`, which Potency is on record?
**A.** inactive

**Q.** Which activity change, negative = cell killing does the source give for `COc1ccc(C[C@@H](N)c2ccc(OC)cc2)cc1` here?
**A.** inactive: -7.24% [at 9.22 µM]

**Q.** Which Potency does the source give for `N#C/C(=C\c1ccc(O)c(O)c1)C(N)=S` here?
**A.** inconclusive: 25.1 µM [cytotoxic, partial curve]

**Q.** For `C[C@@]12CC[C@H](O)C[C@@H]1CC[C@H]1[C@@H]2C[C@@H](O)[C@]2(C)[C@@H](C3=CC(=O)OC3)CC[C@]12O`, which Potency is on record?
**A.** inconclusive: 1.58 µM [cytotoxic, full curve]

**Q.** Which Potency does the source give for `O=C1C2(Cl)C3(Cl)C4(Cl)C(Cl)(Cl)C5(Cl)C3(Cl)C1(Cl)C5(Cl)C24Cl` (stereo unspecified) here?
**A.** inconclusive: 31.6 µM [cytotoxic, single point]

**Q.** For `CC(C)CC(N)C1(c2ccc(Cl)cc2)CCC1` (stereo unspecified), which Potency is on record?
**A.** inconclusive: 25.1 µM [cytotoxic, single point]

**Q.** For `CC(=O)OC1C[C@H](O[C@@H]2C(O)C[C@H](O[C@@H]3C(O)C[C@@H](OC4CC[C@]5(C)C(CCC6C5CC(O)[C@@]5(C)C(C7=CC(=O)OC7)CC[C@@]65O)C4)OC3C)OC2C)O[C@H](C)[C@H]1O[C@H]1OC(CO)C(O)C(O)C1O` (stereo partly specified), which Potency is on record?
**A.** inconclusive: 0.0398 µM [cytotoxic, full curve, poor fit]

**Q.** With `O=C1C2CCN(CC2)C1(CO)CO` as the molecule, how does the Potency read?
**A.** inactive

**Q.** Which Potency does the source give for `O=C1C(Cl)=C(Cl)C(=O)C(Cl)=C1Cl` here?
**A.** inconclusive: 31.6 µM [cytotoxic, single point]

**Q.** Which Potency does the source give for `CC(=O)OC1CC[C@@]2(C)C3CC[C@]4(C)C(=O)CCC4C3CC[C@H]2C1` (stereo partly specified) here?
**A.** inconclusive: 12.6 µM [cytotoxic, partial curve]

**Q.** For `CC[C@@H]1CN2CCc3cc(OC)c(OC)cc3[C@H]2C[C@@H]1C[C@@H]1NCCc2cc(OC)c(OC)cc21`, which Potency is on record?
**A.** inconclusive: 31.6 µM [cytotoxic, single point]

**Q.** Which Potency does the source give for `COc1cc2c(cc1OC)-c1c(OC)c(OC)cc3c1C(C2)N(C)CC3` (stereo unspecified) here?
**A.** inactive

**Q.** For `Nc1ccccc1C(=O)OCCc1ccccc1`, which Potency is on record?
**A.** inconclusive: 15.8 µM [cytotoxic, partial curve]

**Q.** Which Potency does the source give for `Cc1ccccc1Cn1cccc(C(=O)Nc2nc3ccccc3s2)c1=O` here?
**A.** active: 10 µM

**Q.** For `Cc1ccc2cccc(OC(=O)N3CCCC3)c2n1`, which Potency is on record?
**A.** inactive

**Q.** For `CCCCCCOc1ccc(CN2CCN(CCO)CC2)cc1`, which Potency is on record?
**A.** inconclusive: 12.6 µM [cytotoxic, single point]

**Q.** Which Potency does the source give for `Oc1ccc2c3c1O[C@H]1c4[nH]c5ccccc5c4C[C@]4(O)[C@H](C2)N(CC2CC2)CC[C@@]314` here?
**A.** inconclusive: 20 µM [cytotoxic, partial curve]

**Q.** Which Potency does the source give for `COC(=O)C1CN(C#N)N(c2ccc(Cl)cc2)C12c1ccccc1-c1ccccc12` (stereo unspecified) here?
**A.** active: 11.2 µM

**Q.** Which Potency does the source give for `N#C/C(=C\c1ccc(O)c(O)c1)C(=O)NCCCNC(=O)/C(C#N)=C/c1ccc(O)c(O)c1` here?
**A.** inconclusive: 31.6 µM [cytotoxic, partial curve, poor fit]

**Q.** For `COc1ccc(C(=O)Nc2nnc(S(=O)(=O)N(CC(C)C)c3ccc(C)cc3)s2)cc1OC`, which Potency is on record?
**A.** inconclusive: 0.501 µM [cytotoxic, full curve, poor fit]

**Q.** Which Potency does the source give for `O=C(Nc1ccc(F)c([N+](=O)[O-])c1)c1cccn(Cc2ccccc2)c1=O` here?
**A.** inconclusive: 20 µM [cytotoxic, partial curve]

**Q.** For `COC[C@H]1OC(=O)c2coc3c2[C@@]1(C)C1=C(C3=O)[C@H]2CCC(=O)[C@@]2(C)C[C@H]1OC(C)=O`, which Potency is on record?
**A.** inconclusive: 25.1 µM [cytotoxic, single point]

**Q.** For `CCCN1CCO[C@@H]2c3cc(O)ccc3OC[C@H]21`, which Potency is on record?
**A.** inconclusive: 3.16 µM [cytotoxic, single point]

**Q.** Which Potency does the source give for `CN(C(=O)Cc1ccccc1)[C@H](CN1CCCC1)c1ccccc1` here?
**A.** inactive

**Q.** Which Potency does the source give for `COCCNc1oc(-c2ccc(OC)cc2)nc1C#N` here?
**A.** inconclusive: 1 µM [cytotoxic, partial curve]

**Q.** With `CCOc1ccccc1NC(=O)c1sc2nc3c(cc2c1N)CN(Cc1ccccc1)CC3` as the molecule, how does the Potency read?
**A.** inconclusive: 25.1 µM [cytotoxic, single point]

**Q.** With `COC(=O)[C@@H]1[C@@H](C(=O)OC)C2(c3ccccc3-c3ccccc32)N(c2ccc(Cl)cc2)N1C#N` as the molecule, how does the Potency read?
**A.** inconclusive: 17.8 µM [cytotoxic, single point]

**Q.** With `COc1ccc2c(c1)-c1nc(NC(=O)c3ccc(Cl)cc3)sc1CC2` as the molecule, how does the Potency read?
**A.** active: 10 µM

**Q.** With `Cc1ccc(-n2sc3ccccc3c2=O)cc1` as the molecule, how does the Potency read?
**A.** inconclusive: 35.5 µM [cytotoxic, single point]

**Q.** Which Potency does the source give for `COc1ccc(NC(=O)c2sc3nc4c(cc3c2N)N2CCC4CC2)cc1OC` here?
**A.** inconclusive: 0.0398 µM [cytotoxic, full curve, poor fit]

**Q.** For `COc1ccc(CCNC(=O)CCn2c(=O)c3ccccc3n(Cc3ccc(Cl)cc3)c2=O)cc1OC`, which Potency is on record?
**A.** inconclusive: 31.6 µM [cytotoxic, single point]

**Q.** For `CCCn1c(C)c(C(=O)c2cccc3ccccc23)c2ccccc21`, which Potency is on record?
**A.** inactive

**Q.** For `CCn1cnc2c(Nc3cccc(Cl)c3)nc(N[C@@H]3CCCC[C@H]3N)nc21`, which Potency is on record?
**A.** active: 12.6 µM
